These compounds were tested on small brown planthopper (assay: Test Example 12: insecticidal test on small brown planthopper, spraying test). Conditions: Laodelphax striatellus, 144 h, small brown planthopper larvae, after 6 days, 40 ppm, read-out: Mortality rate.
Format: in vivo, Laodelphax striatellus
Procedure: A compound solution which was prepared by diluting to the prescribed concentration was sprayed on rice seedlings (cultivar: Koshihikari) and air-dried. […] The results are shown in Table 16 (Tables 16-1 to 16-5).

Compound | mortality at 40 ppm [%]
CN/C(=N\[N+](=O)[O-])NCc1cnc(Cl)s1 [Clothianidin, reference compound] | 95

Same assay, conditions: Laodelphax striatellus, 144 h, small brown planthopper larvae, after 6 days, 60 ppm, read-out: Mortality rate

Compound | mortality at 60 ppm [%]
Cc1ccc(C(=O)NC(CNC(=O)OC2CCCCC2Cl)C(C)C)cc1 (stereo not shown) [Compound 17, N-(2-chlorocyclohexyloxycarbonyl)-N′-(4-methylbenzoyl)-3-methyl-1,2-butanediamine] | 0
Cc1ccc(C(=O)NC(CNC(=O)OCC(F)(F)F)C(C)C)cc1 (stereo not shown) [Compound 6, N-(2,2,2-trifluoroethyloxycarbonyl)-N′-(4-methylbenzoyl)-3-methyl-1,2-butanediamine] | 0

Same assay, conditions: Laodelphax striatellus, 144 h, small brown planthopper larvae, after 6 days, 67 ppm, read-out: Mortality rate

Compound | mortality at 67 ppm [%]
CN/C(=N/CC1CCOC1)N[N+](=O)[O-] (stereo not shown) [Dinotefuran, reference compound] | 95

Same assay, conditions: Laodelphax striatellus, 144 h, small brown planthopper larvae, after 6 days, 95 ppm, read-out: Mortality rate

Compound | mortality at 95 ppm [%]
CCOc1ccc([Si](C)(C)CCCc2ccc(F)c(Oc3ccccc3)c2)cc1 [Silafluofen, reference compound] | 95

Same assay, conditions: Laodelphax striatellus, 144 h, small brown planthopper larvae, after 6 days, 100 ppm, read-out: Mortality rate

Compound | mortality at 100 ppm [%]
CCOc1ccc(C(C)(C)COCc2cccc(Oc3ccccc3)c2)cc1 [Etofenprox, reference compound] | 95
CC[S+]([O-])c1c(C#N)nn(-c2c(Cl)cc(C(F)(F)F)cc2Cl)c1N (stereo not shown) [Ethiprole, reference compound] | 95

Same assay, conditions: Laodelphax striatellus, 144 h, small brown planthopper larvae, after 6 days, 200 ppm, read-out: Mortality rate

Compound | mortality at 200 ppm [%]
CC(C)N1C(=O)N(c2ccccc2)CS/C1=N\C(C)(C)C [Buprofezin, reference compound] | 90

Same assay, conditions: small brown planthopper larvae, after 6 days, 60 ppm

Compound | Mortality rate [%]
Cc1ccc(C(=O)NCC(NC(=O)OCC(F)(F)F)C(C)(C)C)cc1 (stereo not shown) [Compound 24] | 0
C=C(Cl)COC(=O)NC(CNC(=O)c1ccc(C)cc1)C(C)C (stereo not shown) [Compound 15] | 0
CC(C)C(CNC(=O)c1nc2ccccc2s1)NC(=O)OCC(F)(F)F (stereo not shown) [Compound 38] | 0
CC(C)C(CNC(=O)c1nc2ccc(F)cc2s1)NC(=O)OCC(F)(F)F (stereo not shown) [Compound 37] | 0
CC(CNC(=O)c1cc2ccccc2o1)NC(=O)OCC(F)(F)F (stereo not shown) [Compound 40] | 0
CCC(C)C(CNC(=O)c1cc2ccccc2o1)NC(=O)OCC(F)(F)F (stereo not shown) [Compound 32] | 5
CC(C)(C)C(CNC(=O)c1cc2ccccc2o1)NC(=O)OCC(F)(F)F (stereo not shown) [Compound 31] | 0
CCC(C)C(CNC(=O)c1nc2ccccc2s1)NC(=O)OCC(F)(F)F (stereo not shown) [Compound 33] | 0
CC(C)C(CNC(=O)c1cc2ccccc2o1)NC(=O)OCC(F)(F)F (stereo not shown) [Compound 28] | 0
CC(C)C(CNC(=O)c1cc2ccccc2s1)NC(=O)OCC(F)(F)F (stereo not shown) [Compound 34] | 0

Same assay, conditions: small brown planthopper larvae, after 6 days, 500 ppm

Compound | Mortality rate [%]
COP(=S)(OC)Oc1ccc([N+](=O)[O-])c(C)c1 [MEP, reference compound] | 95
COP(=S)(OC)Oc1ccc(SC)c(C)c1 [MPP, reference compound] | 90
CCC(C)c1ccccc1OC(=O)NC (stereo not shown) [BPMC, reference compound] | 95

What follows are compounds tested on rice stem borer (assay: not given). Conditions: in vivo.

Compound | Mortality rate [%]
CN(C)C(CSC(N)=O)CSC(N)=O [Cartap] | 95
Cc1cc(C(F)(C(F)(F)F)C(F)(F)F)ccc1NC(=O)c1cccc(I)c1C(=O)NC(C)(C)CS(C)(=O)=O [Compound 101, reference compound] | 95
CCc1ccc(C(=O)NN(C(=O)c2cc(C)cc(C)c2)C(C)(C)C)cc1 [Tebufenozide] | 95
CNC(=O)c1cc(Cl)cc(C)c1NC(=O)c1cc(Br)nn1-c1ncccc1Cl [Compound 102, reference compound] | 95
Cc1ccc(C(=O)NC(CNC(=O)OC2CCCCC2Cl)C(C)C)cc1 (stereo not shown) [Compound 17, N-(2-chlorocyclohexyloxycarbonyl)-N′-(4-methylbenzoyl)-3-methyl-1,2-butanediamine] | 0
N#Cc1ccc(CC(=NNC(=O)Nc2ccc(OC(F)(F)F)cc2)c2ccc(C(F)(F)F)cc2)cc1 [Compound 103, reference compound] | 90
Cc1ccc(C(=O)NC(CNC(=O)OCC(F)(F)F)C(C)C)cc1 (stereo not shown) [Compound 6, N-(2,2,2-trifluoroethyloxycarbonyl)-N′-(4-methylbenzoyl)-3-methyl-1,2-butanediamine] | 0

What follows are compounds tested on small brown planthopper (assay: not given). Conditions: in vivo.

Compound | Mortality rate [%]
O=[N+]([O-])NC1=NCCN1Cc1ccc(Cl)nc1 [Imidacloprid] | 95
CN1COCN(Cc2cnc(Cl)s2)/C1=N\[N+](=O)[O-] [Thiamethoxam] | 95
CC1=NNC(=O)N(/N=C/c2cccnc2)C1 [Pymetrozine] | 95
N#Cc1nn(-c2c(Cl)cc(C(F)(F)F)cc2Cl)c(N)c1[S+]([O-])C(F)(F)F (stereo not shown) [Fipronil] | 95
CCOC(=O)CCN(SN(C)C(=O)Oc1cccc2c1OC(C)(C)C2)C(C)C [Benfuracarb] | 95

Test system: rice stem borer
Assay: not given
Conditions: in vivo
Remark: another data set of the same source

Compound | Mortality rate [%]
CN(C)C(CSC(N)=O)CSC(N)=O [Cartap] | 95
Cc1ccc(C(=O)NC(CNC(=O)OCC(F)(F)F)C(C)C)cc1 (stereo not shown) [Compound 6, N-(2,2,2-trifluoroethyloxycarbonyl)-N′-(4-methylbenzoyl)-3-methyl-1,2-butanediamine] | 0

Test system: rice stem borer
Assay: not given
Conditions: in vivo
Remark: another data set of the same source

Compound | Mortality rate [%]
CN(C)C(CSC(N)=O)CSC(N)=O [Cartap] | 95
Cc1ccc(C(=O)NC(CNC(=O)OCC(F)(F)F)C(C)C)cc1 (stereo not shown) [Compound 6, N-(2,2,2-trifluoroethyloxycarbonyl)-N′-(4-methylbenzoyl)-3-methyl-1,2-butanediamine] | 0

Source: US20090023667A1 (priority 2005, published 2009)
